# Reference: PMC12136788
# The other results are listed elsewhere or left out.
# T1: UNK ZnF1-3 (human, UniProt Q9C0B0 31-174)
# T1 sequence: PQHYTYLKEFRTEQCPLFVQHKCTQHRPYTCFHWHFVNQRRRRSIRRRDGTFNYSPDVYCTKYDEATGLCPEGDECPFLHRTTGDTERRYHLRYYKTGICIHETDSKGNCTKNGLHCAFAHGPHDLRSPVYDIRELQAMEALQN
# B1: chr6:41757443:41757444:+_ENSG00000214736_ENST00000398881|hu_mus|hu_hu_hu_mus_False|68_68 (ssRNA)
# RNA: GGGAGUUCUACAGUCCGACGAUCGAACCGUGCAGAGGCAACAUCUCAGCCGACACUGGGGGAUGGGGGAACAAAAGGGGGGGGUUCAGGCAAGGAGAGGGAGUCAACUUCAGCUGCCACUCAGGUAGGAUCUUGUGGUCACAGCAACAGAGGAUUGAGCAUCA
# B2: chr15:83907949:83907950:-_ENSMUSG00000018865_ENSMUST00000082365|mus_hu|FALSE|FALSE (ssRNA)
# RNA: GGGAGUUCUACAGUCCGACGAUCCUGUUAUUAUAAAUAAAAGUCAAACGUGAGGUCACACUUUCCCAUCUUCUGUUUAUACACCAAGUCAAACUUCUCAUUCAUGGAGACGGUGAAGAUGUCCUUCCACAGCCCAACUCUUCCCAACAGAGGAUUGAGCAUCA
# B3: chr11:77340908:77340909:-_ENSG00000074201_ENST00000525064|hu_hu|hu_hu_hu_mus_True|18_38 (ssRNA)
# RNA: GGGAGUUCUACAGUCCGACGAUCGUUUGGAUCCCUGGACACCGCAUGUAAACUAAUGGUGGGGUAUUCCAGUGAGAAUCCUAAUCCCGAACCAUCUAACCAAGACAGGCGGCUCUCAGCGAUGUAAAGCGUGCCGGUGCCGAGCAACAGAGGAUUGAGCAUCA
# B4: chr3:149684364:149684365:-_ENSG00000070087_ENST00000239940|hu_hu|FALSE|FALSE (ssRNA)
# RNA: GGGAGUUCUACAGUCCGACGAUCUGAGUAUGCCUUCUUAUUCAAUCCGCCUCCAUGGACCCCUUCUUUUCCCAUUACAAAGACCAAGACUCUACCAGCUCUGCCGACAGCCACAUUGUAUGUUGGCUCCCCACCUUGACUCUUCAACAGAGGAUUGAGCAUCA
# B5: chr5:128440902:128440903:+_ENSG00000066583_ENST00000173527|hu_mus|hu_hu_hu_mus_True|8_8 (ssRNA)
# RNA: GGGAGUUCUACAGUCCGACGAUCUUGAACGGUGCUGCCAAGUCCUUUGGGGUAUUGUUCCGUUAUGAUAACUGGAAUCCCUAAGAUCCGAGCUCCUUGCAACAGUCUCUGUCCCACACUAAUGAUGUCCCCAAAAUAUUUGAUCAACAGAGGAUUGAGCAUCA
# B6: 33852131_33852251_8664_3pUTR_ENSMUSG00000042197_ENSMUST00000044455|mouse|control|control (ssRNA)
# RNA: GGGAGUUCUACAGUCCGACGAUCCCGUCUCAAAACAAACAAACAAAACAAAACAAAAAAAGGUAUGGGCCACCACACCUAGCUAGCAAUCAAAUCUUUUUUCAAACAAGACUUAGAAUGCCAGCACUUGAAGCAGCAGGACUCCAACAGAGGAUUGAGCAUCA
# B7: chr2:91395433:91395434:+_ENSMUSG00000040549_ENSMUST00000099716|mus_mus|FALSE|FALSE (ssRNA)
# RNA: GGGAGUUCUACAGUCCGACGAUCUGGCUUAAGUGAGAUGAUUUUGGAACCAAAUUCACUUAAGGCUUUCCUCAGUGUUUCUAUACAGGCCACUAUGAUCUUGGGGUUCUUGUUAUCCAGGCCCUUCAGAAGCUCUUCUUGUACCAACAGAGGAUUGAGCAUCA
# B8: 107366858_107366978_2518_3pUTR_ENSG00000151135_ENST00000280756|human|control|control (ssRNA)
# RNA: GGGAGUUCUACAGUCCGACGAUCGAAAUACCUUAAAUCAUACUGCAUGAAAUAAAUGACCAUUUAAUUCCUGAUUAGUUGAACUCCUUAAUGACUUUUCAGUUUUGUAUAUAAUAGAAAGGUUCAAGAACCUUUGUAGAUUUGCAACAGAGGAUUGAGCAUCA
# B9: chr7:151048522:151048523:+_ENSG00000013374_ENST00000566856|hu_mus|hu_hu_hu_mus_True|98_108 (ssRNA)
# RNA: GGGAGUUCUACAGUCCGACGAUCCUGCUUCUUAUUUAUGACAAUUUUGAUGUAAUUUUCUUGAAAUCCGAAAGUUUCAGCUAUUUGACACCUCAGGUCUCUACCAGUGACAUGCAAGCGGGUCUCCAACAAGCUUUUCUUAUCCAACAGAGGAUUGAGCAUCA
# B10: chr11:74329583:74329584:+_ENSG00000077514_ENST00000263681|hu_mus|FALSE|FALSE (ssRNA)
# RNA: GGGAGUUCUACAGUCCGACGAUCGGAAGAUGGGGAUUCUGCAGGAGCUCUGGGGACUGCAGCUGCACACUGUAUGGCACUAAACUUGCUGCAGUUCUGCAAAUUGCUUUUAAGGAUGUCAUAGUCGGUAUUGAACAGAGGCCCCAACAGAGGAUUGAGCAUCA
# B11: chr21:30434530:30434531:-_ENSG00000156261_ENST00000286788|hu_hu|FALSE|FALSE (ssRNA)
# RNA: GGGAGUUCUACAGUCCGACGAUCAUCGUCUACUGCCCUUUCUAUGUCAUCCAUCAGAUUGUCUGUAGAGCCUCGAAGUACUAUGGUAGAAAUGGCGCCAUCUUCCUUUUCAUGCUUAAAAACCACCACCUGAGUAUCUCCAACCAACAGAGGAUUGAGCAUCA
# B12: 125398164_125398284_160_CDS_ENSG00000150991_ENST00000546120|human|control|control (ssRNA)
# RNA: GGGAGUUCUACAGUCCGACGAUCUUCCAGCUGUUUUCCAGCAAAGAUCAGCCUCUGCUGGUCAGGAGGGAUGCCUUCCUUAUCUUGGAUCUUUGCCUUGACAUUCUCGAUGGUGUCACUGGGCUCAACCUCGAGGGUGAUGGUCAACAGAGGAUUGAGCAUCA
# B13: 65185493_65185613_980_3pUTR_ENSMUSG00000027828_ENSMUST00000029414|mouse|control|control (ssRNA)
# RNA: GGGAGUUCUACAGUCCGACGAUCCGAAAAGUUGUAAUAUUGUGCUUGGAACACAGAGAACCAGUUAUUAACUUCUUCCUCCUAUUAUAAAUAAUAACAGCUCAGUCCAGGUUACCAUGACCUCUGACAGAUGUAGGAAACAAGCAACAGAGGAUUGAGCAUCA
# B14: chr7:7679991:7679992:-_ENSG00000106399_ENST00000396682|hu_hu|hu_hu_hu_mus_False|38_98 (ssRNA)
# RNA: GGGAGUUCUACAGUCCGACGAUCUGGGAUGAAUCUUUUCCAGCCUCCCCACGAAGCACACGGGCCGGUCGAUAUACUGUGGUAACAUGCUGGCGUUGAUGCGCGACUUGGGGAGCUGCAUUAUGUCCUCCAUGAUUCUGCCGCCAACAGAGGAUUGAGCAUCA
# B15: 63930684_63932353_12046_CDS_ENSG00000103657_ENST00000443617|human|control|control (ssRNA)
# RNA: GGGAGUUCUACAGUCCGACGAUCCCUACCAGCACCCCAUAAGUAGACAUCACAUUUACCUCCCAGGUGCCAGUCCUCAGGUCUGGAAGUUGCCCAAGACAUAAUUUGUUCAUCCAUGCCGUUAAUCCAUUUACUGUUAUCCAUCAACAGAGGAUUGAGCAUCA
# B16: chr5:138654669:138654670:+_ENSG00000015479_ENST00000502499|hu_mus|FALSE|FALSE (ssRNA)
# RNA: GGGAGUUCUACAGUCCGACGAUCUUUCUUUAUUCUCUUAUACUUCUGGGAUAAAUGAACUCUCACUGGCUUGCCAAACACUAAUGCUGGUGUAGUUGUAUAAUAAUCCACAGCAGCCUGAGCAUCUUCUGUGGUGGCCAUUUCCAACAGAGGAUUGAGCAUCA
# B17: chr5:145543945:145543946:-_ENSG00000133706_ENST00000545646|hu_hu|hu_hu_hu_mus_True|1_98 (ssRNA)
# RNA: GGGAGUUCUACAGUCCGACGAUCCUGAACGGCCAGUGGCGGGAAAUAAUCAAGCCAGUGCUCUGCUUCAGAAAACUUCACUAUGUCGUCAUCAGAGAGCCCAAGGGAUUUCAUAAUGUCCCACUGGUACUUAGAAGAUCCAGCCAACAGAGGAUUGAGCAUCA
# B18: chr3:150289932:150289933:+_ENSG00000144895_ENST00000460851|hu_hu|hu_hu_hu_mus_False|98_108 (ssRNA)
# RNA: GGGAGUUCUACAGUCCGACGAUCCUUGUAGUUUUUCACAUCCCACACUUCCAUUUGUCCUCGAAGAUUUCCAAAUCCAGCCAGCACUAAUAUAUGUCCAUGAGGGCUAUAGAAGGCUGCGUUGCGAGGACCAGUCCCAAAGUCCAACAGAGGAUUGAGCAUCA
# B19: chr7:135612270:135612271:-_ENSG00000105887_ENST00000393085|hu_mus|hu_hu_hu_mus_False|48_98 (ssRNA)
# RNA: GGGAGUUCUACAGUCCGACGAUCGUUUUUUUCUGAGUAAGUAUUACGUACUUCAGUGGAAAACAAAACUUAACCUUUUAUUAAUGCAUGUAGUACCAAAAGCAGACAUUUUAGCUUCAUUUAUUCAAAAAUAUUAACAUUAAGCAACAGAGGAUUGAGCAUCA
# B20: chr1:184663225:184663226:-_ENSG00000116406_ENST00000318130|hu_mus|motif|central (ssRNA)
# RNA: GGGAGUUCUACAGUCCGACGAUCCACCAGAGUCUUUCCAGAGAGUCAUAGUUCAUCCUUCUCCAUCAUUUCAAAUGCUUCGGUGUCUUCAUUCCAGUCUGCUAAUAUGGAGUCUAUAGGCUGGGCCUUUGUACCCCAGCUGACCAACAGAGGAUUGAGCAUCA
# B21: 84755613_84757368_2524_3pUTR_ENSMUSG00000026219_ENSMUST00000027421|mouse|control|control (ssRNA)
# RNA: GGGAGUUCUACAGUCCGACGAUCUUGAUUUGCUGCAUAGAAUUAAAAUCAAUAGUAUAAACUCGUCCCAGAGUGGACAAGCUUAUCUCAUCCUCACCGACCUGAUGGGCUGCCUCAAUGAUCCGGCUGUCAAUCCUGUUAUAGCAACAGAGGAUUGAGCAUCA
# B22: chr1:90180419:90180420:+_ENSG00000171488_ENST00000370454|hu_mus|motif|central (ssRNA)
# RNA: GGGAGUUCUACAGUCCGACGAUCAGCCCGGCAGUCUCCCAGCUCGGGAGGGAGGACUUCAAAGUGAUUGCCUUUGAUGUCGGAGUAGGAAAGAAAUAGUAGAUUUCCAAUUUUUGGUGAAAGUACGGAGAGGCUGUUUUUCCCCAACAGAGGAUUGAGCAUCA
# Biological target: T1, UNK ZnF1-3
# Assay: nsRBNS (natural sequence RNA bind-n-seq); RBNS binding buffer (assumed for nsRBNS): 25 mM Tris pH 7.5, 150 mM KCl, 3 mM MgCl2, 0.01% Triton X-100, 500 ug/ml BSA, 20 U/ml SUPERase-In, 4 C; UNK is unkempt and MSI1 is Musashi-1; names of the RNAs are library labels; protein concentration not given here; high values mean tight binding
row,Binder,binding signal
1,B1,2.85 enrichment R
2,B2,1 enrichment R
3,B3,0.956 enrichment R
4,B4,0.77 enrichment R
5,B5,0.786 enrichment R
6,B6,2.11 enrichment R
7,B7,0.563 enrichment R
8,B8,0.507 enrichment R
9,B9,0.812 enrichment R
10,B10,0.98 enrichment R
11,B11,1.26 enrichment R
12,B12,0.589 enrichment R
13,B13,1.16 enrichment R
14,B14,0.453 enrichment R
15,B15,1.03 enrichment R
16,B16,1.1 enrichment R
17,B17,1.47 enrichment R
18,B18,1.29 enrichment R
19,B19,0.817 enrichment R
20,B20,1.08 enrichment R
21,B21,0.752 enrichment R
22,B22,1.77 enrichment R
